Screen size: about 360,000 compounds; about 25,000 (6.9%) were called active. The shares of active, inactive and inconclusive entries below differ from those in the screen. The call rests on the fitted dose curve; in most records, active means well fitted inhibition curve with a large enough effect; inconclusive means small, poorly fitted or top-dose-only effect; inactive means flat fitted curve, though single readings scatter. A potency beside an inconclusive call is a rough fit, not a confirmed value.
These compounds were tested against Luciferin 4-monooxygenase (Photinus pyralis) (UniProt P08659) (assay: qHTS profiling assay for firefly luciferase inhibitor/activator using purifed enzyme and Km concentrations of substrates (counterscreen for miR-21 project)). Conditions: purified FLuc, luminescence inhibition; activity change, negative = inhibition: at 57.5 µM (top of the series).
UniProt P08659, sequence (P08659 whole entry, looked up): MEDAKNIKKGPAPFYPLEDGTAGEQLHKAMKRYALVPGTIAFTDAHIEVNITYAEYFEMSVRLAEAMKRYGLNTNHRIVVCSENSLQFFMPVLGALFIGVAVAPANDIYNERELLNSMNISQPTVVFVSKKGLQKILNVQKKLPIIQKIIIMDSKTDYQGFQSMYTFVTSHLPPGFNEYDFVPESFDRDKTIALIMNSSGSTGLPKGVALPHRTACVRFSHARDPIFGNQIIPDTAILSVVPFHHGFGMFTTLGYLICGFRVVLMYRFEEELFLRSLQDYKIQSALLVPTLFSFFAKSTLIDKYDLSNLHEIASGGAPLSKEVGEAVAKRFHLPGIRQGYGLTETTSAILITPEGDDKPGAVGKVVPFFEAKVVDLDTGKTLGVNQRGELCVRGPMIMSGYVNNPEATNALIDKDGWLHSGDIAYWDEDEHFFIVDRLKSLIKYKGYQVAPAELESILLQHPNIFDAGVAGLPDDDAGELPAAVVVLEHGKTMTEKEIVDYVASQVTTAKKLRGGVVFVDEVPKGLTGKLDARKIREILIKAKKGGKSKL
How it was run: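 Purified P. pyralis luciferase, 10 nM final, with Km-level 10 uM D-luciferin and 10 uM ATP in 50 mM Tris acetate pH 7.5, 10 mM Mg acetate, 0.01% Tween-20, 0.05% BSA; 6-point qHTS titration about 60 µM downward; luminescence read.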
In the case of `CN(C)c1ccc(NC(=O)Nc2ccc3c(c2)nnn3C)cc1`, the Potency is reported as inconclusive: 30.1 µM [inhibitor, single point]. `CCCSC(=S)c1c(C)[nH]n(-c2ccccc2)c1=O` was tested, and the Potency was inconclusive: 23.9 µM [inhibitor, single point]. For `COC(=O)c1cc2occc2n1CC(=O)Nc1ccc(N(C)C)cc1`, the “activity change, negative = inhibition” value was inactive: 3.74%. In the case of `Cc1ccc(CNC(=O)C(=O)NCC(c2ccco2)S(=O)(=O)c2ccccc2)cc1` (configuration not stated), the “activity change, negative = inhibition” value is reported as inactive: -1.48%. In the case of `COc1ccc(-n2ncc3c(NCCCn4ccnc4)ncnc32)cc1`, the Potency is reported as inconclusive: 16.9 µM [inhibitor, single point]. For `O=C(/C(=C/c1ccc(Cl)cc1)c1nc2ccccc2[nH]1)c1cccs1`, the Potency was inconclusive: 23.9 µM [inhibitor, partial curve]. `CCc1nnc(NC(=O)CSc2nc3c(cc2C#N)CCC3)s1` was tested, and the Potency was active: 0.849 µM. With `Nc1nc2ccc(S(=O)(=O)N3CCCCC3)cc2s1` the Potency was inconclusive: 21.3 µM [inhibitor, partial curve, poor fit]. In the case of `O=C(N/N=C/c1ccccc1F)c1ccccc1OCc1ccccc1`, the Potency is reported as active: 16.9 µM. For `N#CC1=C2SCN(C3CCCCC3)CN2C(=O)CC1c1ccc(Cl)cc1` (configuration not stated), the Potency was inconclusive: 15.1 µM [inhibitor, partial curve]. With `Cc1ccc(C(=O)NCCSc2ccccc2)cc1S(=O)(=O)Nc1ccccc1` the “activity change, negative = inhibition” value was inactive: 1.01%. `COc1ccc(NC(=S)NNc2ccc(S(=O)(=O)Nc3ccccc3C(=O)O)cc2[N+](=O)[O-])cc1` was tested, and the Potency was inconclusive: 23.9 µM [inhibitor, single point]. In the case of `O=C(CSc1nc2ccccc2o1)NCc1ccc2c(c1)OCO2`, the Potency is reported as inconclusive: 37.9 µM [inhibitor, partial curve, poor fit]. With `COc1cc(OC)c2c(=O)cc(-c3cccnc3)oc2c1` the Potency was inconclusive: 19 µM [inhibitor, partial curve]. `Cc1ccc(-c2nnc(Nc3ccccc3)c3ccccc23)cc1S(=O)(=O)NCC1CCCO1` (configuration not stated) was tested, and the Potency was inconclusive: 26.9 µM [inhibitor, single point]. With `CN1C(=O)C(N=Nc2ccccc2C(=O)O)N(C)C1=S` (configuration not stated) the Potency was inconclusive: 13.5 µM [inhibitor, partial curve]. With `O=[N+]([O-])c1ccc(NC(=S)N2CCc3ccccc3C2)cc1` the Potency was inconclusive: 37.9 µM [inhibitor, partial curve, poor fit]. With `COc1ccc(NS(=O)(=O)c2ccc(S(=O)(=O)N(C)C)cc2)cc1S(N)(=O)=O` the “activity change, negative = inhibition” value was inactive: -5.29%. For `O=C(NC(=S)NCc1ccccc1)c1ccc2c(c1)OCO2`, the Potency was inconclusive: 19 µM [inhibitor, partial curve]. `O=c1c2ccccc2nc(/C=C/c2cccnc2)n1CCc1ccccc1` was tested, and the Potency was inconclusive: 37.9 µM [inhibitor, single point]. For `O=C(NCCc1cccs1)C1CC(c2ccccc2F)=NO1` (configuration not stated), the Potency was inconclusive: 23.9 µM [inhibitor, partial curve, poor fit]. `CSc1ccc(CN(C)C(=O)CNC(=O)c2sc3ccccc3c2Cl)cc1` was tested, and the Potency was inconclusive: 37.9 µM [inhibitor, partial curve, poor fit]. In the case of `COC(=O)c1sccc1NC(=O)COc1cccc(C)c1`, the Potency is reported as inconclusive: 23.9 µM [inhibitor, partial curve, poor fit]. With `COc1ccccc1NC(=O)Cn1cc(C(=O)c2ccco2)c2ccccc21` the Potency was inconclusive: 26.9 µM [inhibitor, partial curve, poor fit]. `CC(OC(=O)c1ccc(Cl)c(S(N)(=O)=O)c1)C(=O)NCc1ccc2c(c1)OCO2` (configuration not stated) was tested, and the “activity change, negative = inhibition” value was inactive: 1.07%. `CCn1c(C)nc2cc(C(=O)N/N=C(\C)c3ccccc3O)ccc21` was tested, and the Potency was active: 13.5 µM. In the case of `Cc1cc(C)nc(N/N=C/c2ccc3c(c2)OCCO3)n1`, the Potency is reported as active: 19 µM. For `COc1ccc(N(CC2CO2)S(=O)(=O)c2ccccc2)cc1` (configuration not stated), the “activity change, negative = inhibition” value was inactive: 3.09%. With `CCN(CC)C(=O)CSc1nnc(-c2cccc(OC)c2)o1` the Potency was inconclusive: 21.3 µM [inhibitor, partial curve, poor fit]. `CC1=C(C(=O)Nc2cc(Cl)ccc2C)C(c2cccs2)n2ncnc2N1` (configuration not stated) was tested, and the “activity change, negative = inhibition” value was inactive: -2.82%. For `Cc1cc(C(=O)NCc2ccccc2Cl)n(-c2ccccc2)n1`, the “activity change, negative = inhibition” value was inactive: 2.68%. For `O=c1c(O)c(-c2cc(O)c(O)c(O)c2)oc2cc(O)cc(O)c12`, the Potency was inconclusive: 37.9 µM [inhibitor, partial curve, poor fit]. With `CCN(C(=O)c1cn(CC)c(=O)c2cc(OC)c(OC)cc12)c1ccccc1F` the “activity change, negative = inhibition” value was inactive: 0.476%. With `O=C(c1cc(-c2ccc(Cl)c(Cl)c2)on1)N1CCCCCC1` the Potency was active: 4.78 µM. In the case of `CCCNC(=S)Nc1ccc(CC(=O)OC)cc1`, the Potency is reported as inconclusive: 26.9 µM [inhibitor, partial curve, poor fit]. For `NC(=O)C(=O)NCCCN1CCOCC1`, the Potency was inconclusive: 13.5 µM [inhibitor, partial curve, poor fit]. In the case of `Cc1c(/C=N/NC(=O)c2ccc3c(c2)OCO3)cnn1C`, the Potency is reported as inconclusive: 26.9 µM [inhibitor, partial curve, poor fit]. For `Cc1ccc(N=Cc2sccc2C)cc1C`, the Potency was active: 1.9 µM. For `O=C(Nc1ccc(Cl)cc1)Nc1ccccc1CC[N+](=O)[O-]`, the Potency was inconclusive: 21.3 µM [inhibitor, single point]. With `O=C(CN1C(=O)/C(=C\c2cccc(Br)c2)Oc2ccccc21)NCC1CCCO1` (configuration not stated) the “activity change, negative = inhibition” value was inactive: -15.3%. In the case of `CCC1=Nc2cc(C(=O)NC3CCCC3)ccc2Sc2ccc(Cl)cc21`, the “activity change, negative = inhibition” value is reported as inactive: 1.62%. With `COc1ccnc2c1c(=O)n(Cc1ccc(Cl)cc1Cl)c(=O)n2C` the “activity change, negative = inhibition” value was inactive: 6.36%. For `COc1ccc(-c2nc3n(c2C)CCC3)cc1`, the Potency was inconclusive: 16.9 µM [inhibitor, partial curve]. `Cc1cc2nc3c(=O)n(Cc4ccccc4)c(=O)[nH]c3nc2cc1N` was tested, and the “activity change, negative = inhibition” value was inactive: -0.764%. With `COCC(=O)Nc1ccc(-c2cn3cccnc3n2)cc1` the Potency was inconclusive: 21.3 µM [inhibitor, single point]. `Cc1ccc(C(=O)c2sc3nc4c(cc3c2N)CCC4)cc1` was tested, and the Potency was inconclusive: 1.35 µM [inhibitor, full curve]. `COc1ccc(N2CCN(CCC(=O)c3ccc4ccccc4c3)CC2)cc1` was tested, and the “activity change, negative = inhibition” value was inactive: -7.09%.
Further: nearly all actives have a fitted effect of over 55% in size.
Potency means the concentration at half of the fitted maximal effect; tags describe the fitted curve by direction and shape.
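Wherever activity change, negative = inhibition is given: plate controls were vehicle for no effect and reference inhibitor for full effect.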
